Measurements from US20060234955A1, “Cardiac glycosides to treat cystic fibrosis and other il-8 dependent disorders” (priority 2002, published 2006).

Legend:
[1] = tested on: IL-8 secretion from CF lung epithelial cells; settings: cited from earlier work
[2] = tested on: IL-8 secretion from cystic fibrosis epithelial cell line IB-3; settings: running text b63

| SMILES | ID50 [1] [µM] | concentration at which spontaneous IL-8 secretion from CF lung epithelial cells is suppressed [2] [nM] |
| --- | --- | --- |
| CCCn1c(=O)c2[nH]c(C3CCCC3)nc2n(CCC)c1=O [CPX, 1,3-Dipropyl-8-Cyclopentyl xanthine] | 5 |  |
| CO[C@H]1C[C@H](O[C@H]2CC[C@@]3(C)[C@H](CC[C@@H]4[C@@H]3CC[C@]3(C)[C@@H](C5=CC(=O)OC5)[C@@H](OC(C)=O)C[C@]43O)C2)O[C@@H](C)[C@@H]1O [Compound I] |  | 1 to 2 |
| C=CCn1c(=O)c2[nH]c(C3CCCCC3)nc2n(CC=C)c1=O [DAX] | 0.5 |  |
